Data taken from PubChem BioAssay AID686978 (National Center for Advancing Translational Sciences (NCATS), 2013).
Hit rate of the full screen: of about 420,000 compounds, about 64,000 (15%) were called active. The shares of active, inactive and inconclusive entries below differ from those in the screen. The call rests on the fitted dose curve; in most records, active means well fitted inhibition curve with a large enough effect; inconclusive means small, poorly fitted or top-dose-only effect; inactive means flat fitted curve, though single readings scatter. No potency is given beside an inconclusive call; the fits are too rough.

test: qHTS for Inhibitors of human tyrosyl-DNA phosphodiesterase 1 (TDP1): qHTS in cells in absence of CPT; conditions: DT40 Tdp1-/- hTDP1 cells, no CPT, ATP luminescence, 48 h; activity change, negative = growth inhibition: at 46.2 µM (top of the series) unless noted; further: nearly all actives have a fitted effect of over 55% in size
Summary of the method: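 No-CPT arm: Tdp1-/-;hTDP1 DT40 cells (400/well) plus compounds, incubated ≥48 hr at 37 °C. Readout CellTiter-Glo luminescence.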
On the % scale 0 is the no-effect control and ±100 the full control effect; potency means the concentration at half of the fitted maximal effect; tags describe the fitted curve by direction and shape.

**Q.** Which Potency does the source give for `Cc1oc2cc(O)ccc2c(=O)c1Oc1ccccc1` here?
**A.** active: 5.8 µM

**Q.** With `Cc1ccc2nsnc2c1S(=O)(=O)NCc1ccncc1` as the compound, how does the Potency read?
**A.** inconclusive [inhibitor, full curve, poor fit]

**Q.** For `Cc1ccc(C)c(NC(=O)CN2CCCN(Cc3cccc(Cl)c3)S2(=O)=O)c1`, which Potency is on record?
**A.** inconclusive [inhibitor, single point]

**Q.** For `CCc1cc2c(=O)c(-c3nc4ccccc4[nH]3)coc2cc1OC(=O)N1CCOCC1`, which Potency is on record?
**A.** inconclusive [inhibitor, single point]

**Q.** With `CSCCC(NC(=O)c1cc(S(=O)(=O)N2CCOCC2)ccc1C)c1nc2ccccc2[nH]1` (centres undefined) as the compound, how does the “activity change, negative = growth inhibition” value read?
**A.** inactive: 25%

**Q.** For `CC(C)(CNC(=O)c1cc(-c2ccc(Cl)s2)nc2ccccc12)N1CCOCC1`, which Potency is on record?
**A.** inconclusive [inhibitor, single point]

**Q.** With `Clc1cc(Cl)cc(Nc2ncn[nH]2)c1` as the compound, how does the “activity change, negative = growth inhibition” value read?
**A.** inactive: -3.66%

**Q.** With `CCCCNC(=O)C[C@@H]1C[C@@]2(C(=O)OCC)CCC=C2N(Cc2ccc(Cl)cc2Cl)C1=O` as the compound, how does the Potency read?
**A.** active: 16.4 µM

**Q.** For `CC(C)c1nc(SCC(=O)Nc2c[nH]c(=O)[nH]c2=O)c2cnn(-c3ccccc3)c2n1`, which Potency is on record?
**A.** inconclusive [inhibitor, single point]

**Q.** Which Potency does the source give for `COc1ccc(C=O)cc1C1=CC(=O)C[C@H](c2ccc(Cl)cc2)C1` here?
**A.** inconclusive [inhibitor, single point]

**Q.** Which Potency does the source give for `O=C1Nc2ccccc2SC1=Cc1ccccc1` here?
**A.** inconclusive [inhibitor, single point]

**Q.** Which “activity change, negative = growth inhibition” value does the source give for `O=C(O)c1ccc(-n2nncc2-c2ccccc2)cc1` here?
**A.** inactive: -12.9%

**Q.** Which Potency does the source give for `Cc1cc(OC(C)C(=O)Nc2c(C(=O)c3ccc(F)cc3)oc3ccccc23)ccc1Cl` (centres undefined) here?
**A.** inconclusive [inhibitor, single point]

**Q.** Which “activity change, negative = growth inhibition” value does the source give for `CC(C)C[C@H](NC(=O)N1CCn2c1nc1ccccc12)C(=O)N[C@@H](C(=O)O)c1ccccc1` here?
**A.** inactive: -13.5%

**Q.** Which “activity change, negative = growth inhibition” value does the source give for `Cn1cnc2c1c(=O)n(Cc1ccc(Cl)cc1Cl)c(=O)n2C` here?
**A.** inactive: 2.16%

**Q.** Which Potency does the source give for `COC(=O)CNc1c(-c2ccccc2)nc2ccc(Br)cn12` here?
**A.** inconclusive [inhibitor, single point]

**Q.** With `COc1cccc(-c2cc3nc(Nc4ccc(OC)c(OC)c4)n(C)c(=O)c3s2)c1` as the compound, how does the Potency read?
**A.** inconclusive [inhibitor, single point]

**Q.** Which Potency does the source give for `CC(C)(C)c1ccc(C(=O)OCCNC(=O)c2c(Cl)nc3ccccn23)cc1` here?
**A.** inconclusive [inhibitor, single point]

**Q.** Which Potency does the source give for `CC1(C)CC2(CCO1)OC(=O)CC2C(=O)Nc1ccccc1Cl` (centres undefined) here?
**A.** inconclusive [inhibitor, single point]

**Q.** With `O=C(CCl)Nc1cccc(S(=O)(=O)N2CCCCCC2)c1` as the compound, how does the Potency read?
**A.** active: 5.17 µM

**Q.** For `Cc1csc(CN(C)C(=O)CC2C(=O)NCCN2Cc2ccc(F)cc2Cl)n1` (centres undefined), which “activity change, negative = growth inhibition” value is on record?
**A.** inactive: 10.3%

**Q.** Which “activity change, negative = growth inhibition” value does the source give for `COc1ccccc1NC(=S)N1CCn2cccc2C1c1cccnc1` (centres undefined) here?
**A.** inactive: -14.4%

**Q.** With `CCc1ccc(Sc2cc(C(=O)NCc3ccccc3OC)c3ccccc3n2)cc1` as the compound, how does the Potency read?
**A.** active: 18.4 µM

**Q.** With `CN(Cc1nccn1C)C(=O)c1ccc2nc(Cc3ccccc3F)oc2c1` as the compound, how does the “activity change, negative = growth inhibition” value read?
**A.** inactive: 18.3%

**Q.** For `CCCCn1c(-c2ccccc2C)nc2cc3[nH]c(=O)c(C(C)C)nc3cc21`, which Potency is on record?
**A.** inconclusive [inhibitor, single point]

**Q.** With `CC1CCN(c2nc3ccccc3n2CC(=O)c2ccccc2)CC1` as the compound, how does the Potency read?
**A.** inconclusive [inhibitor, single point]

**Q.** For `CCC1(CC)NC(=O)N(CC(=O)N2N=C(c3ccc(Cl)cc3)CC2c2ccco2)C1=O` (centres undefined), which Potency is on record?
**A.** inconclusive [inhibitor, single point]

**Q.** Which Potency does the source give for `COc1ccc(OCC(=O)N2CC3(C)CC2CC(C)(C)C3)cc1` (centres undefined) here?
**A.** inconclusive [inhibitor, full curve]

**Q.** With `CCn1c(=O)cc(SCC(=O)NCc2ccc(F)cc2Cl)c2ccccc21` as the compound, how does the Potency read?
**A.** inconclusive [inhibitor, single point]

**Q.** Which “activity change, negative = growth inhibition” value does the source give for `CN(C)c1ccc(/C=N/NC(=O)CN2CCCCC2)cc1Br` here?
**A.** inactive: 8.4%

**Q.** For `CCN(CC(=O)Nc1ccccc1C(F)(F)F)C(=O)c1cc(S(=O)(=O)N(C)C)ccc1N1CCCC1`, which Potency is on record?
**A.** inconclusive [inhibitor, partial curve, poor fit]

**Q.** With `CCOc1ccc(N2CC(NC(=O)C(=O)c3c[nH]c4ccccc34)CC2=O)cc1` (centres undefined) as the compound, how does the Potency read?
**A.** inconclusive [inhibitor, partial curve]

**Q.** For `Cc1cc(C)n2c(SCc3ccc(Br)cc3)nnc2n1`, which Potency is on record?
**A.** inconclusive [inhibitor, partial curve]

**Q.** With `CC1=CC2=NC(=O)/C(=C\c3cccn3CCOc3ccccc3C)C(=N)N2O1` as the compound, how does the Potency read?
**A.** inconclusive [inhibitor, single point]

**Q.** Which Potency does the source give for `CCc1ccc(Sc2cc(C(=O)NCc3cccc(OC)c3)c3ccccc3n2)cc1` here?
**A.** inconclusive [inhibitor, single point]

**Q.** Which Potency does the source give for `O=[N+]([O-])c1ccc(NCCNS(=O)(=O)c2ccccc2)cc1` here?
**A.** inconclusive [inhibitor, single point]

**Q.** With `COc1c(Cl)cccc1-c1cn2ccc(C)cc2n1` as the compound, how does the Potency read?
**A.** inconclusive [inhibitor, single point]

**Q.** For `Cc1cc(Cl)ccc1Nc1ncccc1C(N)=O`, which Potency is on record?
**A.** inconclusive [inhibitor, single point]

**Q.** For `Cc1c(C(=O)NCc2ccc(F)cc2)sc(=O)n1Cc1ccccc1`, which Potency is on record?
**A.** inconclusive [inhibitor, partial curve]

**Q.** Which “activity change, negative = growth inhibition” value does the source give for `C[C@@H]1CN([C@@H](C)CO)C(=O)c2cc(Br)cnc2O[C@H]1CN(C)Cc1ccccc1C(=O)O` here?
**A.** inactive: -2.29%

**Q.** With `O=C(Nc1ccccc1F)c1ccc2sc([C@H]3C[C@H](O)[C@@H](CO)O3)nc2c1` as the compound, how does the Potency read?
**A.** inconclusive [inhibitor, single point]

**Q.** For `COc1ccc(C(=O)/C=C/c2ccc(OC3CSC3)cc2)cc1`, which Potency is on record?
**A.** inconclusive [inhibitor, single point]

**Q.** Which “activity change, negative = growth inhibition” value does the source give for `CC(NC(=S)Nc1ccccc1C(F)(F)F)C1CC2CCC1C2` (centres undefined) here?
**A.** inactive: -25.6%

**Q.** With `OC(c1ccccc1)(c1nc(-c2cccc(F)c2)cs1)C(F)(F)F` (centres undefined) as the compound, how does the Potency read?
**A.** inconclusive [inhibitor, single point]
